Molecules are shown by their SMILES. Toxic doses and inconclusive results are not listed. The source holds more than one record for some entries. The other results are left out here. There may be further records. Values that stand side by side are repeats (runs, samples, wells, individuals or studies).

In the assay the test system is BDF1 mice, L1210 leukemia sc, survival T/C. Nature of the assay: NCI In Vivo Anticancer Drug Screen. Data for tumor model L1210 Leukemia (subcutaneous) in B6D2F1 (BDF1) mice. The following applies: endpoint: median survival time, higher = longer survival. On the procedure: The antitumor activity of compounds was measured in mice bearing transplantable tumors. Survival or tumor size were measured and the results are expressed as the measurement made in the treated group (T) divided by the measurement made in the vehicle treated control group (C). The tumor model used in this assay is L1210 Leukemia (subcutaneous) in B6D2F1 (BDF1) mice

Where [1] appears, read: dose: 39.0 mg/kg/injection, schedule: Q01DX Z (sc), vehicle: saline.

Regarding `O=P1(N(CCCl)CCCl)NCCCO1` (stereo unspecified), the T/C (dose: 180.0 mg/kg/injection, schedule: Q01DX Z (oral), vehicle: saline) is 122 % of control and 160 % of control.

On to `Cn1cnc([N+](=O)[O-])c1Sc1nc(N)nc2nc[nH]c12`, for which the T/C was 113 % of control and 160 % of control (dose: 10.0 mg/kg/injection, schedule: Q01DX Z (sc), vehicle: methylcellulose (MC)); 113 % of control and 150 % of control (dose: 17.0 mg/kg/injection, schedule: Q01DX Z (sc), vehicle: methylcellulose (MC)); 113 % of control and 150 % of control (dose: 28.0 mg/kg/injection, schedule: Q01DX Z (sc), vehicle: methylcellulose (MC)).

On to `CN(N=O)C(N)=O`, for which, under setting [1], the T/C was 110 % of control, 113 % of control, 161 % of control.

As for `C=CC(O)CN1CC1` (stereo unspecified), the T/C (dose: 3.0 mg/kg/injection, schedule: Q01DX Z (sc), vehicle: saline) is 109 % of control and 160 % of control.

Take `O=C1CN(CCN2CC(=O)NC(=O)C2)CC(=O)N1`: under “dose: 50.0 mg/kg/injection, schedule: Q01DX009 (sc), vehicle: steriod suspending solution”, the T/C was 105 % of control and 150 % of control.

`O=C(Nc1ccc(C2=NCCN2)cc1)c1ccc(C(=O)Nc2ccc(C3=NCCN3)cc2)c([N+](=O)[O-])c1`: the T/C under setting [1] is 104 % of control and 200 % of control.

Turning to `Nc1nc(=S)c2[nH]cnc2[nH]1`, the T/C (dose: 2.16 mg/kg/injection, schedule: Q01DX Z (sc), vehicle: methylcellulose (MC)) was 113 % of control and 160 % of control.

In the case of `S=c1nc[nH]c2nc[nH]c12`, the T/C is 109 % of control and 150 % of control (dose: 47.0 mg/kg/injection, schedule: Q01DX Z (sc), vehicle: methylcellulose (MC)); 109 % of control and 150 % of control (dose: 78.0 mg/kg/injection, schedule: Q01DX Z (sc), vehicle: methylcellulose (MC)); 120 % of control and 155 % of control (dose: 180.0 mg/kg/injection, schedule: Q01DX Z (sc), vehicle: methylcellulose (MC)).

As to `O=P(N1CCOCC1)(N1CC1)N1CC1`, the T/C (dose: 14.0 mg/kg/injection, schedule: Q01DX Z (sc), vehicle: saline) was 116 % of control and 150 % of control.

In the case of `CC(CN1CC(=O)NC(=O)C1)N1CC(=O)NC(=O)C1` (stereo unspecified), the T/C (dose: 400.0 mg/kg/injection, schedule: Q04DX003 (sc), vehicle: steriod suspending solution) was 110 % of control and 175 % of control.

Consider `C1CN1c1nc(N2CC2)nc(N2CC2)n1`, for which the T/C (dose: 1.8 mg/kg/injection, schedule: Q01DX Z (sc), vehicle: saline) was 120 % of control and 150 % of control.

Consider `CCCCCCOP(=O)(N1CC1)N1CC1`, for which the T/C under setting [1] is on record as 120 % of control, 150 % of control, 160 % of control.

(Values after PubChem BioAssay AID250 (DTP/NCI, 2004).)
